# Laboratory results as given in the supplement of paper PMC3334620.
# In all, about 33,000 sequences were measured (“E-score (-0.5 to 0.5)”: median about -0.04, highest 2% from about 0.36 on). Some of the results follow.
# Target: T1, Hmlalpha2 (UniProt P0CY09)
# T1 sequence: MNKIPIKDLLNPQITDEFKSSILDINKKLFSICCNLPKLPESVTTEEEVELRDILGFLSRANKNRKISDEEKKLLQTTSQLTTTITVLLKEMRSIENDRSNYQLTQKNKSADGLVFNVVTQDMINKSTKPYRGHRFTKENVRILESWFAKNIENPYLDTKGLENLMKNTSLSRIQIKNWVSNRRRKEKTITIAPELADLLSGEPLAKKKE
# Experiment: PBM E-score (8-mer binding enrichment) (E-score (-0.5 to 0.5)); higher = stronger / more preferred TF binding; most listed sequences are background and not binding sites
# Settings: protein concentration: 200 nM; construct: GST-full length
# Summary of the method: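 Yeast transcription factors, full-length or as DNA-binding domains, were expressed with a GST tag using PURExpress in vitro transcription/translation. At about 100-200 nM they were applied to universal all-10-mer Agilent arrays, double-stranded by primer extension on fresh or once-stripped slides. Fluorescent anti-GST detected bound protein, and masliner normalised the scans. E-scores for ungapped eight-base words, pooled with reverse complements, came from the Universal PBM Analysis Suite.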
row,Sequence,PBM E-score
1,ACTTGAGC,-0.191
2,GCAAGCGA,0.0703
3,AACCAAGA,0.14
4,AAGGGATA,0.0872
5,CGACAACC,-0.0325
6,CAGCTCGC,-0.145
7,AAAGAGCT,-0.0941
8,AGTTGAAT,0.137
9,AATTTCTC,-0.0474
10,TCCACCAA,-0.0847
11,CTGAAAGC,0.00068
12,ATGGACTG,-0.108
13,AGCTATAG,-0.191
14,CGACTACA,0.201
15,AGCAAAGA,-0.164
16,GGGGGTAC,-0.238
17,AGGACCGC,-0.0857
18,GAAATTTC,-0.375
19,GAGTACTA,0.154
20,CGTGCGCC,-0.0965
21,ATGTGCGA,-0.155
22,GCGGATAC,0.201
23,ATGGCGGA,-0.254
24,CACCAAGA,0.0145
25,ATTGGTCC,0.0463

row,Sequence,PBM E-score
1,AACGTTGG,0.178
2,AGGAGACT,-0.134
3,CACGCTCA,0.117
4,AGTGGCAA,-0.127
5,AACCCTCC,-0.188
6,ATAAGTCG,-0.13
7,CTAAAGGA,-0.0463
8,GGGTAGGA,-0.0133
9,CTCCACAA,-0.0113
10,CCGAACGG,-0.135
11,GCCCAAAA,0.0822
12,ATTTTTTG,0.0078
13,CAATACTA,-0.0143
14,CAGTCATG,-0.0959
15,AACGACTT,-0.0591
16,CTTAGAAG,-0.147
17,CCCGGGTA,-0.0123
18,AAACGTTG,-0.0261
19,AGCATCGC,-0.231
20,GACTCCTA,-0.133
21,AGCGTATG,0.0798
22,CATTCTAC,0.166
23,ACGTCGTG,0.157
24,CCCCACAG,-0.117
25,GATCTACC,-0.0792

row,Sequence,PBM E-score
1,ACCGTGCG,0.0863
2,CGGCTTAA,0.0109
3,AACATACA,0.368
4,AGCAATAG,-0.138
5,GTTCCTCA,-0.0802
6,GTAGGCAA,0.0201
7,AGAGGCTA,-0.207
8,AGTTTCCA,-0.0278
9,ATTGCTGG,-0.164
10,CTATGGAC,-0.125
11,TATCCACA,-0.0396
12,ACGTCTTG,0.0645
13,CGTAGCTA,-0.0528
14,AATAATCC,0.154
15,AACTCTGG,-0.118
16,ACCCGCCC,-0.0901
17,GTACCTAA,0.131
18,CGGGCTGC,-0.193
19,CTGGCTAC,-0.172
20,GATTTATA,0.174
21,AACCCTGC,-0.154
22,ATGTGTCA,0.261
23,CACATATG,0.135
24,ACAATCCT,0.0381
25,CGGCACCA,-0.0392

row,Sequence,PBM E-score
1,GAGACGGC,-0.31
2,CTATGTAC,0.401
3,AACTAATC,-0.04
4,AATACCAA,0.129
5,GGATCAGA,-0.151
6,GATTAAGA,0.0797
7,AGGAAAAT,-0.00136
8,ATTACCAC,0.219
9,AATATATC,0.149
10,GAAGCTTA,0.135
11,AACTGACA,0.148
12,GAACGGTC,-0.304
13,TCTTTTCA,-0.00632
14,AAGCCATA,-0.233
15,ACGCTCCC,-0.0805
16,ACCGGAGT,-0.0629
17,GGCTTTAC,0.201
18,AATAGACA,0.151
19,AAATTGCG,0.132
20,CTCTATGA,-0.11
21,AGGAGAAA,-0.146
22,GACCACTA,-0.0367
23,GTGTACAA,0.439
24,ATGAACTC,-0.0467
25,ATCAGTCA,0.057

row,Sequence,PBM E-score
1,CTCTTAGC,-0.103
2,GAATAACA,0.39
3,ACAAGTCC,0.0646
4,AGGTTTGG,-0.14
5,ATCTAGAT,-0.0873
6,CAGTGCCA,-0.293
7,GAAGGGTC,-0.202
8,GCCCTTAA,-0.0553
9,AGCGGCGC,-0.161
10,CGACATCA,0.106
11,GGGAGCCA,-0.361
12,AGATAGTA,0.0708
13,GTGATCCA,-0.16
14,GAACTACA,0.197
15,CACTCGTC,-0.107
16,AGACATAT,0.0652
17,AAAGCCGG,-0.0314
18,CATCACAA,0.248
19,TATCGCCA,-0.128
20,ATAAGTTC,0.0715
21,CCCGACGG,-0.133
22,TATCGACA,0.163
23,ACAAGTCT,0.176
24,CTAAGGGA,-0.294
25,TACGTGAA,0.227

row,Sequence,PBM E-score
1,AATGCCTG,-0.234
2,AGCGGTCC,-0.183
3,CTACTCAG,-0.0882
4,GCGGCCTA,-0.221
5,CATGCCAC,0.112
6,AACAAGAG,0.0954
7,CTTTCACA,0.238
8,AAAATTAA,0.207
9,AAGATGCA,0.0825
10,CCGAGTCC,-0.142
11,TAATTGAA,0.204
12,CCAGCGCC,-0.337
13,AGACGAAA,-0.00747
14,GATCCCGC,-0.331
15,CGAGATCG,-0.0661
16,AATCCCAT,-0.0199
17,ATAAATGA,0.0479
18,CGCGTCCA,0.086
19,GGATACCC,-0.25
20,CGCCTTTC,-0.214
21,ATGCACCA,-0.0332
22,AACTTTAC,0.237
23,AAGCGAAT,0.145
24,CCGGTAGG,-0.219
25,GCTTCTCA,-0.334

row,Sequence,PBM E-score
1,CACTCGGC,-0.0818
2,CCTCGGGA,-0.302
3,AACTACTC,0.0649
4,AGTCTTTC,-0.265
5,AGCTTCAT,-0.169
6,CCATATCA,-0.146
7,CGACCCGC,-0.135
8,GTTTTTTA,0.218
9,ACGCCTGG,-0.0352
10,CATAATAG,0.136
11,GTACCACA,0.145
12,CGGGCAAC,-0.261
13,CTCCTGTA,0.102
14,CAAATAGC,-0.0233
15,CCCCTTGC,-0.0936
16,CAGTGGCC,-0.152
17,ACGACCGC,-0.273
18,CTTATAAA,0.0996
19,CGCAAACA,0.207
20,TCAGAAGA,-0.267
21,CCTAATAC,0.171
22,ACTAGTTA,0.167
